Paper PMC4336329 (PLoS ONE, 2015)
The whole screen tested about 310,000 compounds, of which about 14,000 (4.5%) showed an effect of 50% or more. Effects have a minus sign here. Some of the results follow.

biological target: human ether-à-go-go-related gene (hERG) potassium channel (human, UniProt Q12809); experiment: primary screen, population patch clamp on CHO cells stably expressing hERG
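Also: peak tail current of the secondary pulse compared with the same well before compound.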

Sequence of human ether-à-go-go-related gene (hERG) potassium channel (Q12809 whole entry, looked up): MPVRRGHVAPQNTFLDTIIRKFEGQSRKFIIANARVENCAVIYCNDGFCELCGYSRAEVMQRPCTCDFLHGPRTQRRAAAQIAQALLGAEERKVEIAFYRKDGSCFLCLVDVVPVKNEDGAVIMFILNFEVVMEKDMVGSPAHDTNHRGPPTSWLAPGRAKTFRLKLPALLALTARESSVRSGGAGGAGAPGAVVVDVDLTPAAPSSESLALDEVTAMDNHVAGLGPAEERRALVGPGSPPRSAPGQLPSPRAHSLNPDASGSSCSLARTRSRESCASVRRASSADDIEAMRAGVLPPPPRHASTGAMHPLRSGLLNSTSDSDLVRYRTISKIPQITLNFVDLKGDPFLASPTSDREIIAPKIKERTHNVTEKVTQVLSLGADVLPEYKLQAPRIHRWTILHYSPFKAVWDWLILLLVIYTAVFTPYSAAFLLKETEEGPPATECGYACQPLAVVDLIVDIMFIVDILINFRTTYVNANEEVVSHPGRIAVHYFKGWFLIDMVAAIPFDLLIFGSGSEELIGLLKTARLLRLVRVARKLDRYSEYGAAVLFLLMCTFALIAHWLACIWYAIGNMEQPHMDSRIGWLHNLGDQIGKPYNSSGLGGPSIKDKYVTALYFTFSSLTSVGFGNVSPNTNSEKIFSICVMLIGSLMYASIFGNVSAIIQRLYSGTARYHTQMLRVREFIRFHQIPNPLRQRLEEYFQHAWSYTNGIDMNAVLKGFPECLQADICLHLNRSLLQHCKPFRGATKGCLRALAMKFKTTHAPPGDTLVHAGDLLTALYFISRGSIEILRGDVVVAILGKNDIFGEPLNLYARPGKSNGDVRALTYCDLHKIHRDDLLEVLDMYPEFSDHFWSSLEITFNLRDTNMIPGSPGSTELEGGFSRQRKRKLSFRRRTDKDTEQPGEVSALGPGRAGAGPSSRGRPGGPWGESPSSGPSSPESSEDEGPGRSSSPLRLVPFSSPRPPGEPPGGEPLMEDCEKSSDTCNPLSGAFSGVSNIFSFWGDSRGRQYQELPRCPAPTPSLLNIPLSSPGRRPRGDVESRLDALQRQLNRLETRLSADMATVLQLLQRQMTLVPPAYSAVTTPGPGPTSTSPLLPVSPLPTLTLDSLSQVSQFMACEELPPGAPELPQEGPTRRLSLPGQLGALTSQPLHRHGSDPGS

Row | SMILES | hERG current change (%, negative = inhibition) at 10uM [%]
1 | CCc1cccc(N(CC(=O)NC2CCCCC2)C(=O)c2csnn2)c1 | 1.71
2 | COC(=O)c1cc2n(n1)CCN(Cc1ccc(F)cc1)C2=O | -16.6
3 | Cc1ccccc1C(=O)N/N=C/c1ccsc1C | 15.1
4 | O=C(C1CCCO1)N1CCN(c2ccc(F)cc2)CC1 (stereo not drawn) | -2.42
5 | CCOC(=O)c1cnn2c(C)cc(-c3ccc(F)cc3)nc12 | -24.6
6 | CN(C)S(=O)(=O)c1cccc(COC(=O)c2cccnc2Cl)c1 | -26.9
7 | c1ccc(C2=Nn3c(Cn4nnc5ccccc54)nnc3SC2)cc1 | -4.34
8 | CCCn1nc(Oc2nc(NCC)nc(NCC)n2)ccc1=O | 1.1
9 | CCC(C)(C)C1CCC2(CC1)NC(=O)N(CC(=O)N(C)CC(=O)Nc1ccccc1C(F)(F)F)C2=O (stereo not drawn) | -5.55
10 | Cc1ccnn1CCC(=O)N1CCCC(Nc2ccc(F)c(F)c2)C1 (stereo not drawn) | 7.99
11 | Cc1cccc(C(=O)NCCc2ccccc2)c1 | 1.51
12 | CCCc1ccc(C(=O)CN2C(=O)C(=O)N(C3CCCC3)C2=O)cc1 | -42.4
13 | O=C(Cn1nc(C(=O)O)c2ccccc2c1=O)Nc1ccc(Br)cc1 | 11.5
14 | CCC(CC)c1nnc(NC(=O)Oc2ccccc2)s1 | -2.43
15 | CCSc1nnc(NC(=O)c2ccc(Br)s2)s1 | 2.27
16 | CC(C)n1cnnc1SCC(=O)Nc1cccc(S(=O)(=O)N(C)c2ccccc2)c1 | -12.4
17 | CC(C)CO/C(=N/S(=O)(=O)c1ccccc1)c1ccccc1 | 2.73
18 | CCc1cc(=O)oc2cc(OC(C)C(=O)NCc3ccccn3)ccc12 (stereo not drawn) | 14.4
19 | CC(C)NC(=O)C1CCCN(c2nnc(-n3cccc3)s2)C1 (stereo not drawn) | -16.4
20 | COc1cc(CO)ccc1OCC(=O)Nc1cccc2ccccc12 | 6.8
21 | CCCNC(=O)C1CC(c2ccccc2[N+](=O)[O-])=NO1 (stereo not drawn) | 8.52
22 | O=C(O)CC(NNC(=O)c1ccccc1)C(=O)Nc1cccc([N+](=O)[O-])c1 (stereo not drawn) | 23.3

Row | SMILES | hERG current change (%, negative = inhibition) at 10uM [%]
23 | Cn1cnnc1SCC(=O)c1ccc(O)c(O)c1 | 18.7
24 | COC(=O)c1sccc1NC(=O)c1cc(-c2ccc(C)cc2C)nc2ccccc12 | 6.94
25 | Nc1nc(NCC2CCCO2)nc(Nc2ccc(F)cc2)c1[N+](=O)[O-] (stereo not drawn) | -7.87
26 | CC#CC[N+](C)(C)CCCCCCCCCCCC.[Br-] | -49
27 | O=C(c1c[nH]c(C(=O)N2CCN(Cc3ccccc3)CC2)c1)C1CCCCC1 | -5.11
28 | CCOC(=O)c1sc(-c2ccccc2)cc1NC(=O)Nc1ccc([N+](=O)[O-])cc1 | 12.9
29 | Cc1ccc([N+](=O)[O-])cc1NC(=S)NC(=O)c1cccs1 | 9.89
30 | Cc1cc(NC(=O)CSc2nc(C3CCCCC3)nc3ccccc23)no1 | 18.9
31 | O=c1[nH]n(-c2cccc3cccnc23)c(=O)c2ccccc12 | -11.5
32 | Cc1sc2ncn(CC(=O)Nc3c(F)cccc3F)c(=O)c2c1S(=O)(=O)N1CCC(C)CC1 | 7.07
33 | CNCc1c(OCc2ccccc2F)ccc2ccccc12.Cl | -63.5
34 | Cc1cccn2c(=O)c3cc(C#N)c(=NC(=O)c4cccs4)n(CCCOC(C)C)c3nc12 | -80.7
35 | Cc1cccc(-c2noc(C3CCCCC3)n2)c1 | 9.7
36 | CCN1CCN(c2ccc(NC(=O)c3ccco3)cc2)CC1 | 8.62
37 | Cl.N[C@@H](Cc1ccccc1)C(=O)N1CCC(C(=O)N[C@@H](CCC(=O)O)C(=O)O)CC1 | 7.18
38 | Cc1ccc(C)c(NC2=CC(=O)CC(C)(C)C2)c1C#N.Cl | -12.8
39 | O=C(Nc1ccccn1)c1sc2cc([N+](=O)[O-])ccc2c1Cl | 24.8
40 | O=[N+]([O-])c1ccc(N/N=C/c2cccnc2)cc1 | 1.93
41 | COCCN(C(=O)Cn1nnc2ccccc21)C(C(=O)NC1CCCC1)c1cc(OC)ccc1OC (stereo not drawn) | 1.8
42 | Cc1c(N/N=C(\C#N)C(=O)c2ccc(Cl)cc2)c(=O)n(-c2ccccc2)n1C | 0.112
43 | O=C(Nc1ccc2c(c1)OCCO2)C1CCCN1C(=O)Nc1ccc(F)cc1 (stereo not drawn) | -3.21
44 | CCCCN(Cc1cccs1)S(=O)(=O)c1ccc(-c2ccc(=O)[nH]n2)s1 | -3.4

Row | SMILES | hERG current change (%, negative = inhibition) at 10uM [%]
45 | Cc1nonc1CC(=O)NC1CC(C)(C)Cc2c1cnn2-c1ccc(F)cc1 (stereo not drawn) | -15.7
46 | O=C(COC(=O)c1cc([N+](=O)[O-])ccc1NCc1ccccc1Cl)NCC(F)(F)F | -7.81
47 | CCNC(=S)N/N=C(\C)c1ccc(Cl)s1 | 10.3
48 | CC(=O)NCCn1c(SCc2ccccc2C)nc2ccccc2c1=O | -17
49 | COc1ccc(OC)c(NC(=O)Cn2c(=O)oc3ccccc32)c1 | 15.7
50 | CCN(CC)S(=O)(=O)c1ccc(N2CCCCC2)c(NC(=O)c2ccncc2)c1 | -29.5
51 | COc1ccccc1CNC(=O)CCc1nnc2ccc(NCCCN3CCCC3=O)nn12 | 19.8
52 | Cc1ccc(S(=O)(=O)N(C)C)cc1NC(=S)Nc1ccc2cn[nH]c2c1 | -32.3
53 | COc1ccc(OCc2nnc(SCC(=O)NC3CC3)n2C)cc1 | 6.89
54 | COc1ccc(CCN(C)C(=O)COc2ccc(N(C)S(=O)(=O)c3ccc(C)cc3)cc2)cc1OC | -38.7
55 | CCOC(=O)N1CCC(N2C(=O)c3ccccc3C2Nc2ccc3c(C)cc(=O)oc3c2)CC1 (stereo not drawn) | -63.8
56 | C=CCc1cccc2cc(C(=O)NC3=C(C#N)CCC3)c(=O)oc12 | 0.713
57 | Cc1ccc2occ(C(=O)c3ccco3)c(=O)c2c1 | -4.53
58 | Cc1cc(C(=O)N/N=C/c2ccc3c(c2)OCO3)c(C)o1 | 13.8
59 | OCC1(Cc2ccccc2)CCCN(C2CCCC2)C1 (stereo not drawn) | -8.01
60 | CN1C(=O)C(c2ccccc2)C(=O)N(C)C1=O | 13.6
61 | CC(NC(=O)c1ccc(-c2ccccc2)cc1)C(c1ccccc1)N1CCOCC1 (stereo not drawn) | -20.3
62 | CCC(C)/C=C/C1=CC2=C(Cl)C(=O)C3(C)OC(=O)C(C(=O)C(C)C(C)O)C3C2=CO1 (stereo not drawn) | 2.49
63 | Cc1ccc(C(N)=S)c(C)c1 | 20.2
64 | CCc1ccc2[nH]c3nc(SCc4nnc(-c5ccccc5)o4)nnc3c2c1 | 0.983
65 | Cc1ccc2nc(SCC(=O)NCc3ccc4c(c3)OCO4)nc(=O)n2c1 | -9.83
66 | CCOC(=O)c1c(C)n(CCOC)c2ccc(O)cc12 | 12.9

Row | SMILES | hERG current change (%, negative = inhibition) at 10uM [%]
67 | CCOC(=O)CN(C(=O)CSc1nnc(C)n1-c1ccccc1)c1cccc([N+](=O)[O-])c1 | -19
68 | O=C(COC(=O)c1c2c(nc3ccccc13)/C(=C\c1cccs1)CCC2)Nc1ccccc1Cl | 12.5
69 | O=C(c1nn(-c2ccccc2)c(=O)c2ccccc12)N1CCN(c2ncccn2)CC1 | 4.54
70 | CC(C)Cc1ccc(C(C)C(=O)Nc2nccs2)cc1 (stereo not drawn) | -1.33
71 | CC(=O)N1CCN(S(=O)(=O)c2cccc(C(=O)Nc3ccccc3N3CCCC3)c2)CC1 | -1.44
72 | Cc1ccc(S(=O)(=O)N2CCN(C(=O)c3ccccc3Cc3ccccc3)CC2)c(C)c1 | 4.42
73 | CCCCN(C(=O)c1cccc(S(=O)(=O)N2CCCC2)c1)c1c(N)n(CCC)c(=O)[nH]c1=O | 4.89
74 | CC1Nc2ccccc2C(=O)N1NS(C)(=O)=O (stereo not drawn) | 19.2
75 | CCc1nnc(N2C(=O)c3ccc(Oc4ccc([N+](=O)[O-])cc4)cc3C2=O)s1 | -22.5
76 | COc1ccccc1NC(=O)CNC(=O)Cn1cnc2sc(C)c(C)c2c1=O | 28.1
77 | Cc1ccc(NC(=O)CN(C)C(=O)c2cc3ccccc3o2)cc1 | 12.5
78 | CCC(=O)Nc1nc2ccccc2n1Cc1ccccc1Cl | 15.6
79 | COC(=O)c1cccc(NS(C)(=O)=O)c1C | 8.68
80 | Cc1nc(CS(=O)c2ccc(Cl)cc2)cc(NCc2ccc(Cl)cc2Cl)n1 (stereo not drawn) | -20
81 | O=C(CN1CCC(O)(c2ccccc2F)CC1)NCCc1c[nH]c2ccccc12 | -4.28
82 | Cc1cc2c(cc1S(=O)(=O)CCC(=O)NCc1ccccc1)OCC(=O)N2 | -4.34
83 | CC(=O)Nc1ccccc1C(=O)C(=O)Nc1ccc(C(=O)NCC2CCCO2)cc1 (stereo not drawn) | 29.2
84 | O=C(NNC1=NS(=O)(=O)c2ccccc21)c1cccc([N+](=O)[O-])c1 | 15
85 | Cc1oc(-c2cccs2)[n+]([O-])c1C.Cl | -3.68
86 | Cn1nc(C(=O)N2CCN(c3ccccc3F)CC2)c2c1-c1ccccc1S(=O)(=O)C2 | -21.2
87 | CC1CN(C(=O)c2ccc(NS(=O)(=O)c3ccc(F)c(F)c3)cc2)CC(C)O1 (stereo not drawn) | -3.83
